# Test results published in the BET-seq Pho4 binding data (Le et al. 2018).
# Some of the results follow. The energies were worked out here from pooled read counts, against the library average; single values are noisy.
# Biological target: T1, Pho4 (S. cerevisiae) (UniProt P07270)
# T1 sequence: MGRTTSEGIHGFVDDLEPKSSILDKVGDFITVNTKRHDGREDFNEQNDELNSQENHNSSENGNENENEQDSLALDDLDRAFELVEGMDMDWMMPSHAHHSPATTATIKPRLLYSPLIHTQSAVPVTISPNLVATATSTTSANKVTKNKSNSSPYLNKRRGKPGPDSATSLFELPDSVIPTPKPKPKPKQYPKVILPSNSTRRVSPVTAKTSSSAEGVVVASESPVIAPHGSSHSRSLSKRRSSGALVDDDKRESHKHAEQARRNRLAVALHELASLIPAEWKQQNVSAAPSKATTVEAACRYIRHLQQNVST
# Test: relative binding free energy (BET-seq); higher = weaker binding
# Conditions: reference: library average
row,Sequence,relative binding free energy
1,CGTATCACGTGGGATG,0.03 kcal/mol
2,TTTGGCACGTGAGGAA,0.11 kcal/mol
3,GGGAACACGTGGTTGT,-0.08 kcal/mol
4,TTTCCCACGTGTTTGG,-0.13 kcal/mol
5,TGGTGCACGTGACGGG,0.13 kcal/mol
6,TTAGGCACGTGCTAAG,-0.04 kcal/mol
7,TGTTTCACGTGGGATA,0.25 kcal/mol
8,TGATGCACGTGAATAG,0.16 kcal/mol
9,ATTGACACGTGGGTCT,-0.19 kcal/mol
10,TAGGGCACGTGCCTGT,-0.16 kcal/mol
11,TTTTACACGTGGTCGG,0.12 kcal/mol
12,TATGGCACGTGAGGGA,0.17 kcal/mol
13,TTTAACACGTGATACT,0.16 kcal/mol
14,TGCCACACGTGGTGTG,-0.13 kcal/mol
15,GGCTGCACGTGTGGTT,0.03 kcal/mol
16,AGTCTCACGTGAGTAG,0.4 kcal/mol
17,GGTCGCACGTGGCTGG,-0.1 kcal/mol
18,CGGTGCACGTGGGTAT,-0.25 kcal/mol
19,GATCGCACGTGGGGGT,-0.2 kcal/mol
20,AGTGGCACGTGTTCAG,-0.1 kcal/mol
21,CTGCTCACGTGGTTTG,0.24 kcal/mol
22,GTGATCACGTGAAGGT,0.33 kcal/mol
23,TTCGTCACGTGAAGGT,0.38 kcal/mol
24,TATCTCACGTGCTGGG,0.07 kcal/mol
25,AGTGTCACGTGGAGAT,0.13 kcal/mol

row,Sequence,relative binding free energy
1,ATGGGCACGTGAAGCT,0.14 kcal/mol
2,TGTGTCACGTGTTGCT,0.13 kcal/mol
3,AGTTACACGTGCAGGT,0.14 kcal/mol
4,TAATGCACGTGGTTGC,-0.07 kcal/mol
5,TAGGCCACGTGTTGTT,-0.19 kcal/mol
6,ATTTTCACGTGTTATA,0.25 kcal/mol
7,TGGCTCACGTGTTTTG,0.28 kcal/mol
8,CTTCTCACGTGTTTAT,0.34 kcal/mol
9,TTGCGCACGTGGGTTG,-0.22 kcal/mol
10,GGATTCACGTGTACTT,0.17 kcal/mol
11,AGATGCACGTGAGGCT,0.13 kcal/mol
12,CGTGGCACGTGTTGTT,-0.02 kcal/mol
13,GGATTCACGTGGGAGC,0.37 kcal/mol
14,GTTGGCACGTGTAGCG,-0.01 kcal/mol
15,GGAGTCACGTGTTACG,0.1 kcal/mol
16,ATTAGCACGTGGTGGT,-0.06 kcal/mol
17,CTACGCACGTGTGGGT,-0.15 kcal/mol
18,AGATGCACGTGGTGGC,-0.08 kcal/mol
19,ATGGACACGTGGGGGG,-0.08 kcal/mol
20,GGGTACACGTGCTTGT,0.06 kcal/mol
21,TCCTTCACGTGGGTTA,0.19 kcal/mol
22,GTAATCACGTGAAAGG,0.26 kcal/mol
23,TATATCACGTGATGCG,0.26 kcal/mol
24,AAGAGCACGTGGTGAG,-0.11 kcal/mol
25,TTTTGCACGTGTGACG,0.1 kcal/mol

row,Sequence,relative binding free energy
1,AGAGACACGTGTGGGA,0.04 kcal/mol
2,GTGGTCACGTGAGGAG,0.33 kcal/mol
3,TATAACACGTGAAGGG,0.35 kcal/mol
4,TGGTGCACGTGTGTCA,0.02 kcal/mol
5,TTTGACACGTGAAATA,0.23 kcal/mol
6,TGTAACACGTGACGGT,0.03 kcal/mol
7,TTCTGCACGTGAGTTG,0.29 kcal/mol
8,AATTGCACGTGTCTTA,0.04 kcal/mol
9,ATTTTCACGTGCATGT,0.25 kcal/mol
10,TTCGTCACGTGTCGGG,0.05 kcal/mol
11,TTATACACGTGGGTGC,-0.11 kcal/mol
12,TATTTCACGTGGTATG,0.29 kcal/mol
13,AGTTTCACGTGCAGGA,0.16 kcal/mol
14,TGAATCACGTGGTGGT,0.24 kcal/mol
15,TTGTTCACGTGCACGT,0.31 kcal/mol
16,CATGGCACGTGTTTGT,-0.09 kcal/mol
17,AGTTACACGTGTTAAT,0.03 kcal/mol
18,GTGTTCACGTGTACGG,0.26 kcal/mol
19,TCTGCCACGTGTAAGT,0.23 kcal/mol
20,TGGTTCACGTGTGATG,0.33 kcal/mol
21,TGGCGCACGTGCGGAG,-0.11 kcal/mol
22,TATGGCACGTGAGGCG,0.1 kcal/mol
23,GAAGTCACGTGTGAGG,0.29 kcal/mol
24,CGTCACACGTGGGGGC,0.04 kcal/mol
25,ATTAACACGTGTAAGT,0 kcal/mol

row,Sequence,relative binding free energy
1,TGAGACACGTGGTATT,-0.03 kcal/mol
2,TATAACACGTGGTGGA,-0.11 kcal/mol
3,ATGGTCACGTGACGGG,0.21 kcal/mol
4,AAGGTCACGTGAGTTT,0.2 kcal/mol
5,AGGGACACGTGGTCGG,-0.05 kcal/mol
6,TGCGACACGTGTATGT,-0.02 kcal/mol
7,TTAAGCACGTGCGGGT,-0.1 kcal/mol
8,CTTCGCACGTGATGGG,-0.02 kcal/mol
9,GTGAGCACGTGGGGAG,-0.21 kcal/mol
10,TTAGGCACGTGTTTTT,-0.02 kcal/mol
11,GGGTACACGTGGGTAG,0.08 kcal/mol
12,AGGTACACGTGCTGAG,0.03 kcal/mol
13,TATATCACGTGGTTCA,0.12 kcal/mol
14,CCGTTCACGTGTAGGG,0.18 kcal/mol
15,TACTTCACGTGGATTT,0.34 kcal/mol
16,TTAACCACGTGGTTTA,-0.06 kcal/mol
17,TTACGCACGTGTTAAT,-0.09 kcal/mol
18,GGAGGCACGTGGATGG,-0.03 kcal/mol
19,GATAACACGTGGTATT,0.04 kcal/mol
20,TATAACACGTGTTTTT,-0.06 kcal/mol
21,CTCGTCACGTGTGGAG,0.14 kcal/mol
22,ATATCCACGTGGGAGT,-0.02 kcal/mol
23,TGAGCCACGTGGGGGA,-0.19 kcal/mol
24,TTTTACACGTGTAACG,0.19 kcal/mol
25,GGGTTCACGTGAGTTA,0.45 kcal/mol

row,Sequence,relative binding free energy
1,GGTCCCACGTGGGGTG,-0.32 kcal/mol
2,CTTTGCACGTGCGTTT,0.02 kcal/mol
3,GGGGACACGTGTAGGC,0.07 kcal/mol
4,AGTAGCACGTGTTATT,-0.05 kcal/mol
5,GGCGTCACGTGGTATG,0.09 kcal/mol
6,GGGTCCACGTGTGTCG,0.1 kcal/mol
7,ATAGGCACGTGGGGTA,-0.25 kcal/mol
8,GGGTACACGTGGCGTC,0.01 kcal/mol
9,CGTTTCACGTGATATG,0.21 kcal/mol
10,GGACTCACGTGTGGTG,0.22 kcal/mol
11,GGTAACACGTGAGAGT,0.33 kcal/mol
12,TTCGTCACGTGGTTGC,0.08 kcal/mol
13,TGCATCACGTGTGTAG,0.15 kcal/mol
14,AGTTACACGTGAATTG,0.21 kcal/mol
15,GGGGACACGTGGGGGT,-0.07 kcal/mol
16,AAAGTCACGTGGCAGG,0.02 kcal/mol
17,AAAGGCACGTGTCGTT,-0.14 kcal/mol
18,TGTGTCACGTGTCGGA,0.21 kcal/mol
19,CGTAGCACGTGCGTGT,-0.16 kcal/mol
20,CAATTCACGTGTGAGT,0.28 kcal/mol
21,TGCGACACGTGTTGTA,0 kcal/mol
22,AGGTACACGTGGTTTG,0.09 kcal/mol
23,TGCAGCACGTGAGGAG,0.21 kcal/mol
24,AATAACACGTGGGCGT,-0.16 kcal/mol
25,TGCCGCACGTGGGGGG,-0.22 kcal/mol

row,Sequence,relative binding free energy
1,GTTGTCACGTGGTGAT,0.21 kcal/mol
2,TTTGGCACGTGCGTAT,-0.13 kcal/mol
3,AATCGCACGTGGTATG,-0.1 kcal/mol
4,GATCGCACGTGTGGGC,-0.04 kcal/mol
5,GTGCTCACGTGCGCGG,0.04 kcal/mol
6,AGGAGCACGTGGTTCT,-0.14 kcal/mol
7,TGGTTCACGTGTGCGG,0.28 kcal/mol
8,TTTTGCACGTGTTTGT,0.02 kcal/mol
9,AATTTCACGTGAGGGG,0.4 kcal/mol
10,TGCAGCACGTGGGGGG,-0.17 kcal/mol
11,TGATGCACGTGGGAGA,-0.04 kcal/mol
12,AATGACACGTGTCTGT,-0.03 kcal/mol
13,TAGAACACGTGGTTAG,-0.03 kcal/mol
14,ATAAGCACGTGATTGG,0 kcal/mol
15,GTAGGCACGTGGATTC,0.05 kcal/mol
16,GGTGTCACGTGTAGGT,0.11 kcal/mol
17,GCTGACACGTGTGGTT,0.04 kcal/mol
18,TTGAGCACGTGCGGGA,-0.14 kcal/mol
19,TGAGGCACGTGCGTCG,-0.1 kcal/mol
20,TATTGCACGTGTGGAT,0.14 kcal/mol
21,TGGAGCACGTGGTCGT,-0.22 kcal/mol
